Data published in the supplement of paper PMC12217912.
The list shows a part of the results. Sequences were assembled here from the parent chain. Values near 0.05 are background.

B1: TEV protease; numbered along this chain (parent)
chain: MGESLFKGPRDYNPISSSICHLTNESDGHTTSLYGIGFGPFIITNKHLFRRNNGTLVVQSLHGVFKVKDTTTLQQHLVDGRDMIIIRMPKDFPPFPQKLKFREPQREERICLVTTNFQTKSMSSMVSDTSCTFPSGDGIFWKHWIQTKDGQCGSPLVSTRDGFIVGIHSASNFTNTNNYFTSVPKNFMELLTNQEAQQWVSGWRLNADSVLWGGHKVFMVKPEEPFQPVKEATQL

Variants of: B1
Assay: raw area under fraction-flipped curve 0-4 h after induction (AUC4h, not background-subtracted), DNA-recorder readout of cleavage of the substrate (dimensionless); higher = more cleavage of the substrate by the protease variant
Details: temperature: 34 °C; time window: 0-4 h after rhamnose induction
Description: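 In vivo DNA recorder in E. coli TOP10(DE3) ΔrhaA at 34 °C. Each TEVp single-site mutant (parent TEVp 0) is paired with a single-site variant of the 7-mer TEVs (canonical ENLYFQ|S). The substrate sits between flexible linkers in a Bxb1-sfGFP-TEVs-SsrA fusion, so cleavage stabilises Bxb1 and speeds flipping of a recombination array, read by NGS. The value is the raw area under the fraction-flipped curve over 0-4 h after rhamnose induction (AUC4h), with ≥20 reads per time point. It is not background-subtracted; inactive controls average about 0.047.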
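Further: Bxb1 expression induced with 0.2% (w/v) L-rhamnose at OD600 near 0.5, cultures sampled hourly, flipped fraction per protease–substrate barcode pair counted by paired-end Illumina sequencing.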

Variant | area with substrate EALYFQS | area with substrate EGLYFQS | area with substrate EHLYFQS | area with substrate ELLYFQS | area with substrate ETLYFQS | area with substrate ECLYFQS | area with substrate EELYFQS | area with substrate EILYFQS | area with substrate EDLYFQS | area with substrate EMLYFQS | area with substrate ESLYFQS | area with substrate EFLYFQS | area with substrate EPLYFQS | area with substrate EQLYFQS | area with substrate EVLYFQS | area with substrate EWLYFQS | area with substrate EKLYFQS | area with substrate EYLYFQS | area with substrate ERLYFQS
V58N | 0.0909 | 0.043 | 0.0486 | 0.0587 | 0.0267 |  |  |  |  |  |  |  |  |  |  |  |  |  | 
Q59D | 0.13 |  |  | 0.0851 | 0.108 | 0.102 | 0.11 | 0.117 |  |  |  |  |  |  |  |  |  |  | 
Q59L | 0.138 |  |  |  | 0.112 |  |  | 0.122 | 0.15 | 0.114 | 0.109 |  |  |  |  |  |  |  | 
H62L | 0.156 | 0.114 |  | 0.0933 |  |  | 0.0879 |  | 0.147 | 0.0934 | 0.0928 | 0.0856 | 0.115 | 0.11 | 0.109 | 0.108 |  |  | 
G63S | 0.0931 |  | 0.1 | 0.0819 |  |  |  | 0.0816 | 0.111 | 0.107 | 0.108 |  |  | 0.103 | 0.0594 | 0.0779 | 0.113 | 0.0956 | 
K66N | 0.115 |  |  |  |  |  | 0.0952 |  |  | 0.116 |  |  |  | 0.101 |  |  | 0.0967 |  | 0.0924
V67I | 0.13 | 0.0691 |  |  |  | 0.11 |  | 0.0795 |  |  |  |  | 0.144 | 0.11 | 0.0911 |  | 0.129 |  | 0.0855
V67Y | 0.0959 |  |  |  |  | 0.0813 | 0.0823 |  |  | 0.109 | 0.0594 |  |  | 0.081 | 0.0911 | 0.1 | 0.0648 |  | 
K68G | 0.138 | 0.0851 |  | 0.0816 |  |  | 0.125 | 0.1 | 0.116 | 0.106 | 0.107 |  | 0.124 | 0.135 | 0.141 | 0.0846 |  |  | 
K68P | 0.145 | 0.109 |  | 0.0967 |  |  |  | 0.092 |  | 0.13 | 0.111 | 0.0798 |  | 0.109 | 0.114 | 0.102 | 0.0992 |  | 
K68W | 0.123 | 0.0972 |  | 0.0773 | 0.106 |  | 0.0844 | 0.0638 | 0.135 | 0.108 | 0.1 | 0.102 |  | 0.128 | 0.0993 |  | 0.101 | 0.0791 | 0.109
D69K | 0.0769 | 0.0818 |  |  |  |  |  | 0.0951 |  |  | 0.114 |  |  |  |  |  | 0.0862 |  | 0.0876
T70K | 0.0627 |  |  |  |  |  |  | 0.0529 |  |  |  |  |  |  |  |  | 0.0635 |  | 
T70P | 0.0919 |  | 0.0969 |  |  | 0.0722 | 0.0834 |  |  |  | 0.0673 |  | 0.0497 | 0.104 | 0.0706 | 0.0662 |  |  | 0.071
T71G | 0.0805 | 0.0757 | 0.0607 | 0.0689 |  |  |  | 0.0617 |  |  | 0.0854 |  | 0.0694 | 0.1 | 0.0731 | 0.0661 |  | 0.0655 | 0.0745
T71K | 0.143 |  |  | 0.0873 |  |  | 0.112 |  |  | 0.128 | 0.119 |  |  | 0.117 |  |  | 0.096 |  | 0.0913
L73C | 0.0787 |  |  |  |  |  |  | 0.0685 |  | 0.068 | 0.0638 |  |  | 0.0879 | 0.0574 |  |  | 0.0661 | 

Variant | area with substrate EALYFQS | area with substrate EGLYFQS | area with substrate EHLYFQS | area with substrate ELLYFQS | area with substrate ETLYFQS | area with substrate ECLYFQS | area with substrate EELYFQS | area with substrate EILYFQS | area with substrate EDLYFQS | area with substrate EMLYFQS | area with substrate ESLYFQS | area with substrate EFLYFQS | area with substrate EPLYFQS | area with substrate EQLYFQS | area with substrate EVLYFQS | area with substrate EWLYFQS | area with substrate EKLYFQS | area with substrate EYLYFQS | area with substrate ERLYFQS
L73D | 0.0675 |  | 0.0542 | 0.0567 | 0.0589 | 0.0377 | 0.0591 |  |  |  | 0.052 |  | 0.0508 |  | 0.0475 | 0.0554 | 0.0483 |  | 0.0656
L73H | 0.0665 |  |  | 0.0515 |  |  |  | 0.0467 | 0.0806 | 0.0614 | 0.0247 | 0.0684 | 0.0695 | 0.0491 | 0.0611 | 0.0548 | 0.0458 |  | 0.063
Q74A | 0.116 | 0.0871 | 0.104 | 0.0886 | 0.104 |  | 0.119 | 0.0986 |  | 0.111 | 0.11 |  |  | 0.121 | 0.0918 |  | 0.0944 | 0.0985 | 
Q74M | 0.105 | 0.0953 |  | 0.092 |  | 0.0956 |  | 0.101 |  | 0.108 | 0.105 | 0.103 | 0.0593 | 0.161 | 0.0863 |  | 0.11 | 0.0985 | 0.127
Q75I | 0.0906 | 0.0809 |  |  |  |  |  | 0.0193 | 0.105 | 0.0848 | 0.0847 |  | 0.098 | 0.0913 |  | 0.0861 |  | 0.0695 | 0.0717
L77C | 0.0854 |  | 0.0761 | 0.0698 |  | 0.0853 |  | 0.0698 |  | 0.0802 | 0.0649 |  |  | 0.105 | 0.0775 |  | 0.0996 | 0.0801 | 0.0768
V78L | 0.101 |  |  |  |  | 0.117 |  | 0.0876 |  |  | 0.103 |  | 0.135 | 0.119 | 0.111 |  | 0.147 | 0.0859 | 
V78R | 0.0548 |  | 0.052 |  | 0.0527 |  | 0.0701 |  | 0.0402 |  | 0.0146 |  |  |  |  | 0.0581 | 0.0235 | 0.0698 | 
R81S | 0.0314 | 0.0424 | 0.0884 |  | 0.0648 |  |  | 0.0658 |  |  | 0.0735 |  | 0.0872 | 0.0784 |  |  | 0.0734 |  | 0.0791
D82A | 0.051 |  |  |  | 0.0546 |  | 0.0485 |  | 0.0488 |  | 0.0577 | 0.0679 |  |  | 0.0534 |  |  |  | 
I84D | 0.0523 |  | 0.0263 | 0.0432 |  |  | 0.0506 | 0.0555 | 0.0717 | 0.0642 | 0.0458 | 0.0525 | 0.0397 | 0.0444 | 0.042 | 0.0519 |  | 0.0417 | 0.0357
I84R | 0.0627 | 0.0576 |  | 0.0569 | 0.146 | 0.0654 |  | 0.0611 |  | 0.0553 | 0.0606 | 0.0542 | 0.0324 | 0.0366 | 0.0438 |  | 0.0588 |  | 
I84T | 0.0852 |  |  |  |  |  |  |  | 0.102 |  |  |  |  | 0.101 |  |  | 0.0837 |  | 
I86L | 0.14 | 0.17 |  |  |  | 0.132 |  | 0.0981 |  |  |  |  |  | 0.147 | 0.093 |  |  |  | 
R87A | 0.105 |  |  | 0.118 |  | 0.0836 |  | 0.1 |  | 0.109 | 0.109 |  | 0.143 | 0.105 | 0.0858 | 0.0606 | 0.117 | 0.137 | 0.122
R87F | 0.109 | 0.0803 | 0.0968 |  | 0.099 | 0.0936 |  | 0.0875 |  | 0.0834 | 0.0886 | 0.0445 | 0.113 | 0.115 |  |  | 0.105 |  | 0.0886
R87I | 0.0995 | 0.0775 |  |  | 0.0763 | 0.0859 |  | 0.0756 |  |  | 0.0842 | 0.0823 |  | 0.0944 | 0.0766 | 0.0754 | 0.0847 | 0.0741 | 0.0898
